{"source": "paper PMC4336329", "about": "(PLoS ONE, 2015)", "note": "Screen size: about 310,000 compounds; about 14,000 (4.5%) showed an effect of 50% or more. The effect is printed as a negative number. This is one part of the list.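 Further: peak tail current of the secondary pulse compared with the same well before compound.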"}
{"biological_target": "human ether-à-go-go-related gene (hERG) potassium channel (human, UniProt Q12809)", "sequence (Q12809 whole entry, looked up)": "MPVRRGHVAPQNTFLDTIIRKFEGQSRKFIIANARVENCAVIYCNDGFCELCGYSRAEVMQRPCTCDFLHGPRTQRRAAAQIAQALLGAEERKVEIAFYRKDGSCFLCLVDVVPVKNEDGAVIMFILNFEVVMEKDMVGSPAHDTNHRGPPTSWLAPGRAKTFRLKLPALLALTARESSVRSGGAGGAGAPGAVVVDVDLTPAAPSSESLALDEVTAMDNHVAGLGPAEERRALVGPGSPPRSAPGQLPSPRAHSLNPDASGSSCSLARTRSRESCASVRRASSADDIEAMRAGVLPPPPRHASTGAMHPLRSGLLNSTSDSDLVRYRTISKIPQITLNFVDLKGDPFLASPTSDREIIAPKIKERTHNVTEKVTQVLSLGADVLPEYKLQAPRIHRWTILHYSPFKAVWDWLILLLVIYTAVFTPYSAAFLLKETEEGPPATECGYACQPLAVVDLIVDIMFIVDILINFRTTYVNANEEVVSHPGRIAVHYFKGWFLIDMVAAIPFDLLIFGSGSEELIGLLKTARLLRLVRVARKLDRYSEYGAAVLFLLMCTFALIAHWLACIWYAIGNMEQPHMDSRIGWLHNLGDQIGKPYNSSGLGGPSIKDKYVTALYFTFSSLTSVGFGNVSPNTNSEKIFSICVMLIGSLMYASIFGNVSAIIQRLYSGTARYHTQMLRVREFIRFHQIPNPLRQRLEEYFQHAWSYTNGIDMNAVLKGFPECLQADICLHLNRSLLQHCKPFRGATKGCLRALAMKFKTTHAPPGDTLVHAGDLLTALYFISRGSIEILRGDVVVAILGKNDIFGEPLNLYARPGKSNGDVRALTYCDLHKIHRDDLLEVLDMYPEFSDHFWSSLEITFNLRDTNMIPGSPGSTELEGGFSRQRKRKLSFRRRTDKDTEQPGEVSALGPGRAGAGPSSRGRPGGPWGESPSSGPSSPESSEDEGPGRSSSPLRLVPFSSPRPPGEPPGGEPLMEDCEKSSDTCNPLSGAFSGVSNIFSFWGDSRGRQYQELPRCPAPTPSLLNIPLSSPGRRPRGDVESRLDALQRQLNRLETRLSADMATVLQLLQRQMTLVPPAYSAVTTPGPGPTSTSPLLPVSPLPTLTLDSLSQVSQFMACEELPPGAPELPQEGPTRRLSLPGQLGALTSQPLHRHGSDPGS", "test": "primary screen, population patch clamp on CHO cells stably expressing hERG", "units": {"hERG current change (%, negative = inhibition) at 10uM": "%"}}
{"smiles": "O=C(Nc1ccc(N2CCOCC2)cc1)c1c(F)cccc1Cl", "hERG current change (%, negative = inhibition) at 10uM": -1.56}
{"smiles": "C/C(=N/NC(=O)CNC(=O)c1cccs1)c1ccc(Cl)cc1", "hERG current change (%, negative = inhibition) at 10uM": 17.5}
{"smiles": "C[C@]12CCC(=O)C(O)=C1CC[C@@H]1[C@@H]2CC[C@]2(C)C(=O)CC[C@@H]12", "hERG current change (%, negative = inhibition) at 10uM": -15.6}
{"smiles": "CC(C)n1c2ccccc2c2nc3ccccc3nc21", "hERG current change (%, negative = inhibition) at 10uM": 1.08}
{"smiles": "O=C(O)CN1CCN(Cc2ccccc2F)C1=O", "hERG current change (%, negative = inhibition) at 10uM": 24.7}
{"smiles": "N#CCSc1nnc(-c2ccc3c(c2)OCO3)o1", "hERG current change (%, negative = inhibition) at 10uM": 13.7}
{"smiles": "N#C/C(=C\\c1ccc(N2CCCC2)c([N+](=O)[O-])c1)c1nc2ccccc2[nH]1", "hERG current change (%, negative = inhibition) at 10uM": -35.5}
{"smiles": "CN1C(=O)CSc2ccc(NC(=O)NCc3cccnc3)cc21", "hERG current change (%, negative = inhibition) at 10uM": -5.23}
{"smiles": "O=C(Nc1ccccc1C(=O)N/N=C/c1ccncc1)c1ccccc1", "hERG current change (%, negative = inhibition) at 10uM": -7.25}
{"smiles": "CC(C)C(=O)OCCN=C1NS(=O)(=O)c2ccccc21", "hERG current change (%, negative = inhibition) at 10uM": -4.71}
{"smiles": "CCOc1cnc(C(=O)NNC(=O)C(Br)C(C)C)o1", "note": "(stereo not shown)", "hERG current change (%, negative = inhibition) at 10uM": 4.78}
{"smiles": "CC(C)N(CC#CC(O)(c1ccccc1)c1ccccc1)CCO", "hERG current change (%, negative = inhibition) at 10uM": -28.1}
{"smiles": "COc1cc2c(cc1NC(=O)Cc1ccc(C)cc1)oc1ccccc12", "hERG current change (%, negative = inhibition) at 10uM": -0.676}
{"smiles": "COc1ccc(-c2nn(C)c(=O)c3ccccc23)cc1NC(=O)Cn1nc(C)c2ccccc2c1=O", "hERG current change (%, negative = inhibition) at 10uM": -57.5}
{"smiles": "Cc1ccc2nc(-c3ccncc3)cc(C(=O)Nc3ccc(F)cc3C)c2c1", "hERG current change (%, negative = inhibition) at 10uM": -25}
{"smiles": "CCn1ncc(Br)c1C(=O)Nc1sc2c(c1C(=O)OC)CCC2", "hERG current change (%, negative = inhibition) at 10uM": -40.8}
{"smiles": "COc1ccc(CCNC(=O)CC(NS(=O)(=O)c2ccc(NC(C)=O)cc2)C(C)C)cc1OC", "note": "(stereo not shown)", "hERG current change (%, negative = inhibition) at 10uM": 17.3}
{"smiles": "O=C(O)c1cc2c(cc1NC(=O)c1c(F)cccc1F)OCCCO2", "hERG current change (%, negative = inhibition) at 10uM": 11.3}
{"smiles": "CC(CC(=O)Nc1nc2ccccc2[nH]1)n1ccnc1", "note": "(stereo not shown)", "hERG current change (%, negative = inhibition) at 10uM": -16.7}
{"smiles": "O=C(c1cccc(S(=O)(=O)Nc2ccc(Br)cc2)c1)N1CCCC1", "hERG current change (%, negative = inhibition) at 10uM": -40.1}
{"smiles": "COc1ccccc1-c1ccc(Nc2cccc(C(F)(F)F)c2)nn1", "hERG current change (%, negative = inhibition) at 10uM": 15.4}
{"smiles": "CN(C)c1cccc2c(S(=O)(=O)N3CCCC3)cccc12", "hERG current change (%, negative = inhibition) at 10uM": 19.8}
{"smiles": "CCOc1ccc2[nH]cc(S(=O)(=O)c3ccc(F)cc3)c(=O)c2c1", "hERG current change (%, negative = inhibition) at 10uM": -4.38}
{"smiles": "CCOc1ccc(/C=C2\\SC(=O)N(CCNC(=O)C3COc4ccccc4O3)C2=O)cc1OC", "note": "(stereo not shown)", "hERG current change (%, negative = inhibition) at 10uM": -20.7}
{"smiles": "COc1cc(/C=N/NC(=O)Cc2nnc(N)s2)cc(OC)c1OC", "hERG current change (%, negative = inhibition) at 10uM": 22.5}
{"smiles": "CCN1CCN(C(=S)Nc2cccc(Cl)c2)CC1", "hERG current change (%, negative = inhibition) at 10uM": -8.01}
{"smiles": "O=c1[nH][nH]cc1C=Nc1ccc(Cl)cc1", "hERG current change (%, negative = inhibition) at 10uM": 11.1}
{"smiles": "O=c1c2ccccc2c(C=Nc2cccc(S(=O)(=O)NCc3ccco3)c2)c(O)n1-c1ccc(Cl)cn1", "hERG current change (%, negative = inhibition) at 10uM": -4.94}
{"smiles": "Cc1ccc(-n2ncc3c(NNC(=O)c4cccs4)ncnc32)cc1", "hERG current change (%, negative = inhibition) at 10uM": 13.3}
{"smiles": "COc1ccc(-n2c(SC)nc3ccccc3c2=O)cc1", "hERG current change (%, negative = inhibition) at 10uM": -2.58}
{"smiles": "CCn1c(CCNC(=O)c2ccccc2Cl)n[nH]c1=S", "hERG current change (%, negative = inhibition) at 10uM": 12}
{"smiles": "CCCn1ncc(C(=O)NC2CCCN(Cc3ccc(Cl)cc3)C2)c1C", "note": "(stereo not shown)", "hERG current change (%, negative = inhibition) at 10uM": -44.4}
{"smiles": "Cc1ccc(-c2noc(CSc3nnc(-c4ccncc4)n3-c3ccc(C)cc3)n2)cc1", "hERG current change (%, negative = inhibition) at 10uM": -42.9}
{"smiles": "COc1ccc(C(=O)NNC(=O)Cc2ccc(-c3ccccc3)cc2)cc1OC", "hERG current change (%, negative = inhibition) at 10uM": 2.14}
{"smiles": "O=C1C2CCCN2C(=O)N1CCN1CCN(CCO)CC1", "note": "(stereo not shown)", "hERG current change (%, negative = inhibition) at 10uM": -5.52}
{"smiles": "Cc1ccc(C)c(NC(=O)c2cc(S(=O)(=O)N3CCCCC3)c[nH]2)c1", "hERG current change (%, negative = inhibition) at 10uM": -5}
{"smiles": "COc1ccc(CCNC(=O)c2cccc(S(=O)(=O)N3CCOCC3)c2)cc1OC", "hERG current change (%, negative = inhibition) at 10uM": 1.15}
{"smiles": "Cc1cc(C(=O)CS(=O)(=O)c2ccccc2)cc(C)c1OC(=O)N(C)C", "hERG current change (%, negative = inhibition) at 10uM": 10.2}
{"smiles": "COC(=O)c1sccc1NC(=O)C1CC(C)=C(C)CC1C(=O)O", "note": "(stereo not shown)", "hERG current change (%, negative = inhibition) at 10uM": 18.5}
{"smiles": "COc1ccc(OCC(O)CNC(=O)c2c(-c3ccccc3)noc2C)cc1", "note": "(stereo not shown)", "hERG current change (%, negative = inhibition) at 10uM": -8.1}
{"smiles": "O=C(/C=C/c1ccccc1)NNC1=NS(=O)(=O)c2ccccc21", "hERG current change (%, negative = inhibition) at 10uM": 23.6}
{"smiles": "CCOC(=O)C1=C(O)C(=O)N(CCCn2ccnc2)C1c1ccc(C)cc1", "note": "(stereo not shown)", "hERG current change (%, negative = inhibition) at 10uM": 24.3}
{"smiles": "CCOC(=O)c1ccc(N/C=C/C(=O)c2ccccc2)cc1", "hERG current change (%, negative = inhibition) at 10uM": 16.6}
